Consider two molecules from patent US20250122306A1 (SUTRO BIOPHARMA, published 2025).

A word on the Kd: it is the free concentration of one partner at which half of the binding sites on the other are occupied at equilibrium, for simple one-to-one binding. A word on the koff: it is the first-order rate constant of dissociation.

The target of assay [1] is T1, human tissue factor on cells (human, UniProt P13726 33-295).
T1 construct: cell-surface TF, transfected (HEK293T-humanTF) or endogenous (tumour lines, keratinocytes); the cell line is named under assay; also called HEK293T-humanTF; TF on BxPC3, primary human keratinocytes, NCI-H292, HCC1954, NCI-H1975
Description: flow cytometry on BxPC3 cells (TF positive), one-site fit of MFI. An excerpt: HEK293T, BxPC3 cells (TF positive) and NCI-H1703 (TF negative) cells were obtained from ATCC (American Type Culture Collection) and maintained in DMEM: F12 (1:1), high glucose (Corning) supplemented with 10% heat-inactivated fetal bovine serum (ThermoScientific), 1× Penicillin/Streptomycin (Corning) and 2 mmol glutamax (Thermo Fisher Scientific). To generate cells that stably expressing human tissue factor (HEK293T-humanTF) or cynomolgus tissue factor (HEK293T-cynoTF), HEK293T cells were transfected with plasmid vectors that contain the corresponding protein sequence and stable clones were selected with puromycin.
For a fluorescence-activated cell sorting (FACS) cell-binding assay, cells were collected by Accutase and counted by the Vi-CELL Cell Viability Analyzersharvested and, then re-suspended in FACS buffer (DPBS buffer supplemented with 1% bovine serum albumin). A total of 200,000 cells in 100 μL were incubated on ice with 100 μL of anti-TF antibodies in each well of a 96-well plate. Cells were washed twice with ice-cold FACS buffer and then incubated on ice for 60 mins with 5 μg/mL Alexa 647-labeled donkey anti-human Fc antibody (Jackson ImmunoResearch). Unstained cells and cells stained with secondary antibody alone were used as controls. Cells were washed twice with FACS buffer and analyzed using a BD FACS Canto system. Geometric mean fluorescence intensities (MFI) were fitted using non-linear regression analysis with one site specific binding equation on GraphPad Prism (GraphPad Software; La Jolla, CA).

The target in assay [2] is T2, cynomolgus tissue factor (cynomolgus TF, Sino Bio #90885-C08H) (cynomolgus monkey, UniProt P13726 33-251 (human entry)).
T2 construct: bought recombinant antigen; also called cyno TF
T2 chain: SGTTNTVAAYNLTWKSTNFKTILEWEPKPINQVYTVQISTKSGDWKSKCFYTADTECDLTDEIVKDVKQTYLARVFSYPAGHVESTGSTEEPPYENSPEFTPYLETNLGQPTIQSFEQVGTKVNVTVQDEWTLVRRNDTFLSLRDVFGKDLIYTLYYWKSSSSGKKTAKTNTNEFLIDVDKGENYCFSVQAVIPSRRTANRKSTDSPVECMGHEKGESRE
Description: Biacore SPR, single-point off-rate (100 nM antigen), scFvFc captured on anti-Fc. As to the method:
(§1) Anti-Fc polyclonal antibodies were immobilized onto a CM4 chip (Cytiva #BR100534) using amine coupling chemistry (Human Antibody Capture Kit, Cytiva #BR100839). The immobilization steps were carried out at a flow rate of 25 μL/min in 1×HBS-EP+buffer (Cytiva #BR100669). The sensor surfaces were activated for 7 min with a mixture of N-hydroxysuccinimide (NHS, 0.05 M) and 1-ethyl-3-(3-dimethylaminopropyl)-carbodiimide (EDC, 0.2 M). The anti-Fc polyclonal antibodies were injected over all 4 flow cells at a concentration of 25 μg/mL in 10 mM sodium acetate, pH 4.5, for 7 min. Ethanolamine (1 M, pH 8.5) was injected for 7 min to block any remaining activated groups.
(§2) Off-rate and kinetic binding experiments were performed at 25° C. using 1×HBS-EP+buffer. Antibodies were injected over the anti-Fc surface at a concentration of 3 μg/mL for 12 seconds at a flow rate of 10 μL/min on flow cells 2, 3 and 4, followed by a buffer wash for 30 seconds at the same flow rate. Single point off-rate analysis was carried out using an antigen concentration of 100 nM. […] After capturing ligand (antibody) on the anti-Fc surface, the analyte (human TF, Lake Pharma; cynomolgus TF, Sino Bio #90885-C08H; mouse TF, R&D Systems #3178-PA) was bound for 180 seconds, followed by a 420 second dissociation phase at a flow rate of […]. Between each ligand capture and analyte binding cycle, regeneration was carried out using 2 injections of 10 mM glycine pH 2.0 for 30 seconds at 30 μL/min, followed by a 30 second buffer wash step.

The target in assay [3] is T3, human tissue factor (human TF, Lake Pharma) (human, UniProt P13726 33-251, limits assumed).
T3 construct: bought recombinant antigen; also called CD142
Described as above. As to the method: as §1, §2

Assay [4] concerns the target tissue factor reagent of the Tissue Factor Activity Assay Kit (Abcam #ab108906) (UniProt P13726 33-295, limits assumed). Description: cell-based or functional assay.

B1: SRP2842-G04 scFvFc (Fc fusion)
chain: MSKNKQSVEESEGGLFKPTDTLTLTCTVSGFSLSYYGVSWVRQAPGNGLEWIGTIDSSGRTYYASWANGRFTISNDNAPNTVSLQVNSLAAADTATYFCARDFYGWNSGALDIWGPGTLVTVSSGGGGSGGGGSGGGGSELDLTQTASPVSAAVGGTVTINCQASQSVYSNKYLSWYQQKPGQPPKLLIYKASTLASGVPSRFSGSGFGTEFTLTISDVQCDDAATYYCAAAYSDDSDTAFGGGTKVVVEAAAGSDQ[human IgG1 Fc with changes not given here]GSGDYKDDDDKGSG
notes: rabbit scFv-Fc with C-terminal Flag and His6 tags; His6 follows; also called 2842-G04 (scFvFc parent)
In the case of B1, in assay [1], the “Bmax (MFI)” value was found to be 34900 MFI and binding was put at a Kd of 0.058 nM. Moreover, the koff in assay [2] was determined as 0.00141 s⁻¹. In assay [3], this molecule had a koff of 0.000604 s⁻¹. Besides, the “FX conversion (% inhibition), 1000 nM antibody” value in assay [4] was 2.29%.

B2: SRP2842-B01 scFvFc (Fc fusion)
chain: MSKNKQSVEESEGGLFKPADTLTLTCTASGFSISSYDMSWVRQAPGNGLEWIGIIGSNGRTYYPNWAKSRSTITRNTNENTVTLKMTSLTAADTATYFCARGLYDGTGNIWGPGTLVTVSSGGGGSGGGGSGGGGSELVMTQTPSPVSAAVGSTVTISCQASQSVYGNNWLSWFQQKPGQPPKLLIYGASKLASGVSSRFKGSGSGTQFTLTISGVQCDDAATYYCQGTYYSGDWYFAFGGGTELEILAAAGSDQ[human IgG1 Fc with changes not given here]GSGDYKDDDDKGSG
notes: rabbit scFv-Fc with C-terminal Flag and His6 tags; His6 follows; also called 2842-B01 (scFvFc parent)
On to B2, for which the “Bmax (MFI)” value in assay [1] was 39000 MFI. The Kd in assay [1] was found to be 0.089 nM. The koff in assay [2] was 0.00127 s⁻¹; in assay [3] it was 0.000303 s⁻¹. In assay [4], the “FX conversion (% inhibition), 1000 nM antibody” value stood at 2.54%.
